For the data set, the system named is ATP. Put plainly: switch fluorescence ratio, 500 uM ATP over buffer (Cy3 cluster intensity, sum of 5 cycles each) (fold (ratio)); higher = stronger signal-on switching upon ATP binding; sequences stand for … in TCGTCGGCAGCGTCAGATGTGTATAAGAGACAGTTTTTTTTTTTTTTTTTTTTTTTTT…TC. The note with it: aptamer strand: ATP DNA aptamer (quencher-CACCTGGGGGAGTATTGCGGAGGAAGG + anchor), 100 nM annealed; ATP concentration: 500 uM; one replicate. An outline of the steps: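 Five buffer/ATP imaging cycles were run on Cy3-labelled switching-strand clusters on a modified Illumina MiSeq flow-cell, with NaOH stripping and re-annealing between cycles. In each cycle, clusters annealed to 100 nM quencher-labelled ATP aptamer were imaged in selection buffer, then after 15 min with 500 uM ATP at 22 °C. Per cluster, the fluorescence ratio is summed target-cycle over summed buffer-cycle Cy3 intensity, averaged per switch-domain sequence. Only clusters within 100-1000 RFU were kept.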

These results are taken from the supplement of paper PMC10126150.

Values marked as one replicate rest on one cluster of the flow cell; about a third of the high ones do not repeat.
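Note: ATP exposure 15 min at 22 °C before imaging.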

With TTGATGTTCA, the switch fluorescence ratio came to 0.961.

CAGGTATCT: the switch fluorescence ratio was found to be 1.04.

On to GGAATAGCGC, for which the switch fluorescence ratio was found to be 0.961.

For TTGAGGGCGC, the switch fluorescence ratio worked out at 0.953.

For the sequence CTGAAGGATG, the switch fluorescence ratio was 0.959.

On to ACGAGGATGT, for which the switch fluorescence ratio was 1.02.

On to TCTGGTTCCA, for which the switch fluorescence ratio was determined as 1.01.

With ATGCTCTAGG, the switch fluorescence ratio was 1.02.

With CTAAACGAAC, the switch fluorescence ratio was found to be 1.23.

With CCGATTTACG, the switch fluorescence ratio was found to be 1.27.

ACCTGTGCCC: the switch fluorescence ratio turned out to be 1.05.

As for TGCATCTTG, the switch fluorescence ratio was 1.03.

For CCAGTCAGCC, the switch fluorescence ratio was 1.03.

As for CAGGTAACCG, the switch fluorescence ratio is 0.938.

AAGCATAGCA: the switch fluorescence ratio turned out to be 1.04.

Turning to ATAGAGCTA, the switch fluorescence ratio came to 1.

Regarding ATGAGGGTG, the switch fluorescence ratio is 1.1.

In the case of ACCGTTATAA, the switch fluorescence ratio is 1.19.

With GAGCCAATGG, the switch fluorescence ratio worked out at 1.09.

For the sequence ACAACTATCG, the switch fluorescence ratio is 1.06.

As for CTACTGTTAC, the switch fluorescence ratio is 1.34.

Turning to AGGATTTGTG, the switch fluorescence ratio was determined as 1.01.

For the sequence TTTTTGATCA, the switch fluorescence ratio was 1.01.

As for GTTGGATTCA, the switch fluorescence ratio came to 0.977.

As to TAATGGAATA, the switch fluorescence ratio is 1.05.

With TTACCCCCGC, the switch fluorescence ratio was found to be 1.4.

GAAGGGCCAC: the switch fluorescence ratio came to 0.973.

Consider TTGCAATCCG, for which the switch fluorescence ratio was determined as 1.14.

On to TAAATCCTCA, for which the switch fluorescence ratio came out at 0.996.

With AAAGCTGCAC, the switch fluorescence ratio was determined as 1.28.

With TTAGAACTCG, the switch fluorescence ratio worked out at 1.1.

TTTATCGCAC: the switch fluorescence ratio came to 1.23.

AGATCAGAGC: the switch fluorescence ratio came out at 1.03.

Regarding AAATGCACTA, the switch fluorescence ratio was found to be 1.04.

Consider TGTGGCCAAA, for which the switch fluorescence ratio was determined as 0.976.

Regarding CCGCTTAACA, the switch fluorescence ratio was 2.09.

Consider AACATCGGTC, for which the switch fluorescence ratio amounted to 1.03.

ATTGATCGTT: the switch fluorescence ratio was 0.921.

Consider GGGTCGAATT, for which the switch fluorescence ratio worked out at 1.02.

Take GTGATACGCT: the switch fluorescence ratio was 1.07.

For CAGCAACGGG, the switch fluorescence ratio came to 1.08.

With GAGCCTTAGT, the switch fluorescence ratio is 0.965.

TTAGCACGT: the switch fluorescence ratio was 1.04.

On to TGTGCAATAG, for which the switch fluorescence ratio came out at 4.16.

On to TCTGATTCTG, for which the switch fluorescence ratio worked out at 0.983.

On to GGCTTTTTG, for which the switch fluorescence ratio was 0.992.

In the case of GGATGAATAT, the switch fluorescence ratio stood at 0.981.

Take AATTACCTAT: the switch fluorescence ratio is 1.04.

Turning to GGGCCCCCAC, the switch fluorescence ratio turned out to be 1.01.

On to AAAAGCAGTC, for which the switch fluorescence ratio is 1.12.

With AGTTATGGTT, the switch fluorescence ratio worked out at 0.927.

Consider CCACGATTTG, for which the switch fluorescence ratio is 0.986.

For the sequence CGGTTGCTCT, the switch fluorescence ratio is 1.05.

TGGACACACA: the switch fluorescence ratio amounted to 1.31.

For the sequence ACTCCTGTTG, the switch fluorescence ratio was 1.08.

Turning to TGTAATAACG, the switch fluorescence ratio is 1.04.

Take TTTGAGCAA: the switch fluorescence ratio was 1.62.

For CATTATGAGG, the switch fluorescence ratio was determined as 0.941.

In the case of GTGATGGTGT, the switch fluorescence ratio was 0.962.

As to ATTGTTATGT, the switch fluorescence ratio came out at 1.03.

Take TGCTC: the switch fluorescence ratio amounted to 1.03.

As for CCCGACTTCT, the switch fluorescence ratio is 1.05.

Take GCAACTGGGA: the switch fluorescence ratio stood at 1.03.

For ACACAAGCAT, the switch fluorescence ratio is 1.09.

In the case of TATTGCCGTC, the switch fluorescence ratio was found to be 1.04.

In the case of CTGGATCTAG, the switch fluorescence ratio came out at 1.

As for GATCACAGTT, the switch fluorescence ratio came out at 0.985.

Turning to GATATGGAGC, the switch fluorescence ratio came out at 0.976.

With TTAGGAGGG, the switch fluorescence ratio was determined as 0.961.

In the case of CATTGAGGGG, the switch fluorescence ratio turned out to be 1.01.

With CGATTGAAGA, the switch fluorescence ratio was found to be 1.01.

As for TCGATAGATG, the switch fluorescence ratio is 0.994.

For TGCTATAGCC, the switch fluorescence ratio worked out at 1.

Turning to GGCAGGGGT, the switch fluorescence ratio is 0.972.

With TTCCAGCCGA, the switch fluorescence ratio turned out to be 1.02.

Consider ATGCATGG, for which the switch fluorescence ratio was 1.02.

In the case of GCCAGAAGCG, the switch fluorescence ratio turned out to be 1.

Turning to CATCTGTGGT, the switch fluorescence ratio came out at 0.997.

TATGCAATGT: the switch fluorescence ratio worked out at 1.13.

CGTTCATCAT: the switch fluorescence ratio stood at 0.95.

For ACAGCACAAA, the switch fluorescence ratio was found to be 1.26.

Turning to ACTGGTAACA, the switch fluorescence ratio was determined as 1.03.

For TAATACTCTT, the switch fluorescence ratio worked out at 1.01.

Turning to TTCGTTAACT, the switch fluorescence ratio came out at 1.02.

Take GCGGATAAAA: the switch fluorescence ratio was 1.08.

As for ATTTGGCTAG, the switch fluorescence ratio was determined as 0.992.

Consider CAATTGCGCA, for which the switch fluorescence ratio is 0.966.

Regarding GAACTGCAGG, the switch fluorescence ratio came to 0.976.

Take ACACCTGGTG: the switch fluorescence ratio came to 1.37.

Regarding CAGCCGTCTC, the switch fluorescence ratio worked out at 0.97.

Regarding ATATGCACAC, the switch fluorescence ratio amounted to 1.17.

As to TTACCACTG, the switch fluorescence ratio was 1.

With TTATACTACA, the switch fluorescence ratio amounted to 1.09.

Turning to AAAGCATAAA, the switch fluorescence ratio stood at 0.955.

Consider AGTTAGATTT, for which the switch fluorescence ratio is 0.976.

With GGGTCGCTCG, the switch fluorescence ratio is 1.02.

Turning to TATCACGTAT, the switch fluorescence ratio turned out to be 1.17.

Turning to GACACGGTTG, the switch fluorescence ratio came out at 1.01.

On to CGCCGTCTT, for which the switch fluorescence ratio was 0.996.

Consider CGTCCAGGTC, for which the switch fluorescence ratio is 1.44.

Take AGGAGCCATA: the switch fluorescence ratio is 0.989.

Regarding GCAGGTAATT, the switch fluorescence ratio is 0.98.

In the case of TTTGCGAACC, the switch fluorescence ratio worked out at 1.12.

As to TCGTCGTGCA, the switch fluorescence ratio came out at 1.02.

As for CCGTGACGTG, the switch fluorescence ratio was 1.05.

GTATGACTCC: the switch fluorescence ratio came to 1.02.

Turning to CGGTTAATT, the switch fluorescence ratio was found to be 0.959.

As for TACTCTCTCT, the switch fluorescence ratio turned out to be 1.04.

For TTTTGAATA, the switch fluorescence ratio was 1.05.

Turning to GTGATGCTAA, the switch fluorescence ratio came to 0.983.

In the case of GGCTTGGTAG, the switch fluorescence ratio is 1.

On to CGATTCGTT, for which the switch fluorescence ratio came to 1.

As for AACCTTAGGG, the switch fluorescence ratio stood at 1.02.

Regarding AACTAGACCA, the switch fluorescence ratio worked out at 1.03.

With GTTTTGAAGG, the switch fluorescence ratio amounted to 0.959.

With TGGAGCTTGT, the switch fluorescence ratio turned out to be 0.936.

For the sequence CGAACAATT, the switch fluorescence ratio worked out at 1.

Regarding GGGCTAGCAA, the switch fluorescence ratio amounted to 1.22.

For GCTGGTAGTA, the switch fluorescence ratio is 0.981.

Take GGCAACAGGT: the switch fluorescence ratio is 1.03.

For the sequence CTTGCTGCAA, the switch fluorescence ratio was 2.5.
